Test results from the supplement of paper PMC12645437, “Orthogonal IMiD-Degron Pairs Induce Selective Protein Degradation in Cells” (ACS Chemical Biology, 2025).
The other results are listed elsewhere or left out.

Target: no compound (DMSO)
Experiment: log2 fold change of degron read counts, EGFP-low vs EGFP+ sorted cells; higher = lower degron-EGFP level without compound (poor expression or instability)
Conditions: compound: DMSO control; 18 h
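Note: jurkat cells carrying a lentiviral library of mutant zinc finger degrons fused to EGFP plus mCherry, mCherry+ cells FACS sorted, degron abundance counted by next-generation sequencing.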

Row | Sequence | log2 fold change of degron read counts
1 | FRCNQCGRLFTQKGNLLRHIKL | 0.767
2 | LLCNQCGFPCTQKGNLLRHIKL | 0.714
3 | FVCEICGAYFTQKGNLLRHIKL | -1.07
4 | FCCPICGRVFTQKGNLLRHIKL | 0.392
5 | FSCNQCGRYFTQKGNLLRHIKL | 0.904
6 | FSCEICGHCFTQKGNLLRHIKL | -2.46
7 | FHCNQCGHWFTQKGNLLRHIKL | 1.14
8 | FVCNVCGAWFTQKGNLLRHIKL | -0.015
9 | FCCDVCGAIFTQKGNLLRHIKL | -0.476
10 | FKCPICGRGFTQKGNLLRHIKL | -0.853
11 | FVCDQCGAEFTQKGNLLRHIKL | -1.61
12 | FKCNQCGRPFTQKGNLLRHIKL | 0.118
13 | FICEQCGAIFTQKGNLLRHIKL | -0.992
14 | FRCNQCGRIFTQKGNLLRHIKL | 0.355
15 | FNCEVCGAQFTQKGNLLRHIKL | -2.05
16 | LMCNQCGFGCTQKGNLLRHIKL | 1.09

Row | Sequence | log2 fold change of degron read counts
17 | FYCPVCGAAFTQKGNLLRHIKL | -0.502
18 | FNCPICGAIFTQKGNLLRHIKL | 0.0255
19 | LFCEICGFCCTQKGNLLRHIKL | 0.856
20 | FQCDICGACFTQKGNLLRHIKL | -0.711
21 | FFCPVCGANFTQKGNLLRHIKL | 0.149
22 | FSCEICGRHFTQKGNLLRHIKL | -1.29
23 | FTCNICGAMFTQKGNLLRHIKL | -0.943
24 | FTCNICGACFTQKGNLLRHIKL | -0.253
25 | FSCSVCGHVFTQKGNLLRHIKL | -0.525
26 | FRCSVCGHYFTQKGNLLRHIKL | 0.0994
27 | LHCNQCGFMCTQKGNLLRHIKL | 0.839
28 | LRCNQCGFMCTQKGNLLRHIKL | 1.07
29 | FHCPQCGAVFTQKGNLLRHIKL | -0.143
30 | FDCSVCGHCFTQKGNLLRHIKL | 0.207
31 | FYCNQCGAIFTQKGNLLRHIKL | 1.02
32 | FACNQCGHMFTQKGNLLRHIKL | 0.295
